# Experimental data: the BET-seq Pho4 binding data (Le et al. 2018)
# The other results are listed elsewhere or left out. The energies were worked out here from pooled read counts, against the library average; single values are noisy.
# Target: T1, Pho4 (S. cerevisiae) (UniProt P07270)
# T1 sequence: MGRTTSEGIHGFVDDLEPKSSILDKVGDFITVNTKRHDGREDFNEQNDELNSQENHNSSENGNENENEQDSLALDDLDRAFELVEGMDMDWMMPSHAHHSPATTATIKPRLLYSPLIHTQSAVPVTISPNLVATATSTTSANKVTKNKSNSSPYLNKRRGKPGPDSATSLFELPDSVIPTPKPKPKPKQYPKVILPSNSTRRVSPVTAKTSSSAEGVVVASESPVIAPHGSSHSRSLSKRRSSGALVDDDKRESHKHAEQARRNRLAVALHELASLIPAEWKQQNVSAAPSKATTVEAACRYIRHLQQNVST
# Assay: relative binding free energy (BET-seq); higher = weaker binding
# Details: reference: library average
row,Sequence,relative binding free energy [kcal/mol]
1,ATATGCACGTGTTTAC,0.05
2,CGGGGCACGTGTGAAT,0.05
3,TATTGCACGTGTTTTT,0.09
4,AGGGTCACGTGGGCAA,-0.11
5,GGCCGCACGTGTGGGC,0.09
6,CGCGTCACGTGGTCGG,-0.09
7,GCTAGCACGTGGGGTA,-0.24
8,ATGTTCACGTGATGCT,0.25
9,AATCTCACGTGTAGTG,0.24
10,GGCGTCACGTGTATGT,0.25
11,AGAATCACGTGGCTGG,0.18
12,GTATGCACGTGATTAA,-0.01
13,GGAGTCACGTGGTACT,0.08
14,CTATACACGTGGTTGT,0.09
15,AGTTTCACGTGTGCTG,0.24
16,TAAGGCACGTGGGCGC,-0.3
17,GTCTGCACGTGTGGCT,0.08
18,AGTTTCACGTGGTGCA,0.3
19,CTTGACACGTGATTTT,0.2
20,TTTTGCACGTGCTTTA,-0.01
21,TGATTCACGTGTCGTG,0.28
22,TATCGCACGTGTGCGT,-0.02
23,TACGTCACGTGGGCTG,-0.01

row,Sequence,relative binding free energy [kcal/mol]
1,CGGTTCACGTGTTGCT,0.31
2,GGTTGCACGTGAAGTG,0.31
3,TGAGTCACGTGGAGTT,0.2
4,ATCAACACGTGGAGGT,0.09
5,GACGGCACGTGGTGTT,-0.08
6,TGGGACACGTGGGAAT,-0.04
7,CTTGGCACGTGGGAAA,-0.16
8,ATAAGCACGTGGTTCT,-0.18
9,GGTTACACGTGAGGGA,0.4
10,TGAGTCACGTGAGTTA,0.27
11,AGGGGCACGTGGCAAA,-0.15
12,TAGTGCACGTGTTGTG,-0.08
13,TGGTGCACGTGGGTAT,-0.03
14,AAGGACACGTGTTTAT,0.17
15,AAATTCACGTGCAGGT,0.28
16,ATGGACACGTGGTATG,-0.06
17,TTCGTCACGTGAGTGC,0.26
18,GGAGGCACGTGGTTGG,-0.16
19,GTGTGCACGTGAGGTG,0.25
20,GTGGACACGTGAAGGC,0.33
21,TATTTCACGTGAGTGC,0.49
22,ATTGACACGTGGGAGA,-0.16
23,GCGGGCACGTGACGGG,0.05

row,Sequence,relative binding free energy [kcal/mol]
1,TCTTTCACGTGTCTGT,0.14
2,CGTTTCACGTGCGTGG,0.2
3,CTGGGCACGTGGATCG,-0.09
4,GGGAGCACGTGGAGCA,-0.16
5,GACCTCACGTGGGGGT,0.14
6,TGCTACACGTGTTGTG,0.16
7,AGATACACGTGCGTTT,0.01
8,AGATTCACGTGCGGTA,0.21
9,TGAGTCACGTGCTGCT,0.08
10,TGTTTCACGTGGATAG,0.34
11,AAGATCACGTGAGTTT,0.42
12,TATTACACGTGTGCGT,-0.01
13,TTTGACACGTGCCGTT,0.02
14,AAGTTCACGTGAGTTG,0.38
15,AATTGCACGTGGAAGT,-0.1
16,GGAGGCACGTGGCGTT,-0.22
17,AGGAACACGTGTGATG,0.03
18,TTTGGCACGTGAGTGT,0.11
19,AATTGCACGTGCGGTG,0.07
20,GTCGGCACGTGATTGT,0.23
21,TTTGTCACGTGAATAA,0.29
22,ATAGACACGTGTTGCG,0.04
23,AGTAACACGTGAGCGG,0.15

row,Sequence,relative binding free energy [kcal/mol]
1,ACTGACACGTGAAGGT,0.22
2,TTGCGCACGTGCGAGT,-0.07
3,GGGGACACGTGGCGCT,-0.12
4,TGAACCACGTGATGTT,0.29
5,TTTTACACGTGTAGAA,0.14
6,TATGACACGTGGTTAT,-0.12
7,ACAGGCACGTGGGATG,-0.12
8,TGGTTCACGTGCTGAT,0.35
9,ATTTTCACGTGACGTA,0.21
10,GGTGACACGTGTGAGT,0.05
11,TAAGGCACGTGTTGCA,-0.14
12,TGCAGCACGTGAGTTA,0.19
13,CATTACACGTGAGGGT,0.28
14,TTGGCCACGTGGCTGG,-0.04
15,GATTACACGTGTGTCA,0.33
16,TTGTTCACGTGGTAAT,0.22
17,TGATGCACGTGAAAAG,0.17
18,CGTTGCACGTGTAGTA,0.04
19,GTAATCACGTGTGTTT,0.3
20,TAAATCACGTGTGTCA,0.13
21,GGAACCACGTGGTGTG,-0.05
22,GGTATCACGTGGTGCC,0.25
23,TATGGCACGTGCTGGG,-0.18

row,Sequence,relative binding free energy [kcal/mol]
1,CGCGTCACGTGTGTAG,0.11
2,TATGGCACGTGAGTAT,-0.01
3,TTTGTCACGTGTTGAC,0.08
4,TGCTGCACGTGGCGGG,-0.01
5,CGGGTCACGTGTTTCG,0.13
6,TTTGTCACGTGTTCTG,0.12
7,GTTGGCACGTGCTCTG,-0.08
8,TGGGTCACGTGGCCAT,0.05
9,GTCTGCACGTGAGGTT,0.34
10,CCGTGCACGTGGTAGT,-0.07
11,TGGGGCACGTGAGGGG,0.11
12,GCAGTCACGTGGGGCG,-0.06
13,TTTGGCACGTGGACAT,-0.12
14,AGATACACGTGTGGTA,0.1
15,TTGTCCACGTGTAGGA,0.07
16,GTACGCACGTGAGTGG,-0.05
17,ATAGGCACGTGGGGAG,-0.24
18,AGGTCCACGTGTGGAT,0.03
19,GGGGTCACGTGGGCTT,0.11
20,AGGTTCACGTGGGCTC,0.17
21,ATCGTCACGTGTAGGG,0.01
22,TTGGTCACGTGTCCAT,0.19
23,GAATTCACGTGGTATA,0.24
